# Results as given in the supplement of paper PMC12217912.
# The list shows a part of the results. Sequences were assembled here from the parent chain. Values near 0.05 are background.
# B1: TEV protease; numbered along this chain (parent)
# chain: MGESLFKGPRDYNPISSSICHLTNESDGHTTSLYGIGFGPFIITNKHLFRRNNGTLVVQSLHGVFKVKDTTTLQQHLVDGRDMIIIRMPKDFPPFPQKLKFREPQREERICLVTTNFQTKSMSSMVSDTSCTFPSGDGIFWKHWIQTKDGQCGSPLVSTRDGFIVGIHSASNFTNTNNYFTSVPKNFMELLTNQEAQQWVSGWRLNADSVLWGGHKVFMVKPEEPFQPVKEATQL
# Variants of: B1
# Assay: raw area under fraction-flipped curve 0-4 h after induction (AUC4h, not background-subtracted), DNA-recorder readout of cleavage of the substrate (dimensionless); higher = more cleavage of the substrate by the protease variant
# Details: temperature: 34 °C; time window: 0-4 h after rhamnose induction
# Procedure: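 In vivo DNA recorder in E. coli TOP10(DE3) ΔrhaA at 34 °C. Each TEVp single-site mutant (parent TEVp 0) is paired with a single-site variant of the 7-mer TEVs (canonical ENLYFQ|S). The substrate sits between flexible linkers in a Bxb1-sfGFP-TEVs-SsrA fusion, so cleavage stabilises Bxb1 and speeds flipping of a recombination array, read by NGS. The value is the raw area under the fraction-flipped curve over 0-4 h after rhamnose induction (AUC4h), with ≥20 reads per time point. It is not background-subtracted; inactive controls average about 0.047.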
# 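Further: Bxb1 expression induced with 0.2% (w/v) L-rhamnose at OD600 near 0.5, cultures sampled hourly, flipped fraction per protease–substrate barcode pair counted by paired-end Illumina sequencing.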
Variant,area with substrate ENLYFDS,area with substrate ENLYFFS,area with substrate ENLYFGS,area with substrate ENLYFIS,area with substrate ENLYFKS,area with substrate ENLYFMS,area with substrate ENLYFPS,area with substrate ENLYFSS,area with substrate ENLYFTS,area with substrate ENLYFWS
F41E,0.0397,0.0581,0.0293,0.0562,0.0555,0.0876,0.0577,0.0395,0.0634,0.0246
I84K,0.062,,0.0586,0.055,,0.0562,0.057,,0.0513,0.0404
T233V,0.0458,,0.073,0.0575,0.0657,0.0603,0.0499,,0.0547,0.0624
G2V,0.0575,0.0551,,0.0576,,0.0743,,0.0163,0.0908,0.0635
L33A,0.063,0.101,,0.0543,,,0.0477,,,
N177W,0.0732,0.057,,0.0579,,0.0728,,0.0487,0.0673,0.0608
T119N,0.0535,0.079,0.0457,,0.0734,,0.0554,,,0.044
L191N,0.0399,0.0503,0.0528,0.0559,,,0.0501,0.0552,0.0558,0.0542
R50S,0.0665,,,,,,0.0514,,0.0466,
D149E,0.0593,0.0593,0.0795,0.0629,0.0578,,0.0603,,0.0559,
V58C,0.0828,0.0588,,0.0605,,,0.0509,,0.0484,
M188F,0.0721,0.0687,,0.0667,,0.0678,0.0488,0.0499,,0.0558
G35F,0.0528,,,0.0402,,,0.0453,,,
P155T,0.0422,,,0.0594,0.0567,0.0488,0.0647,,,
K216Y,0.0614,0.0674,0.0527,0.0371,,0.0073,0.0605,0.052,,0.0512
L5I,0.0494,0.0642,,0.0647,,,0.0639,0.0492,,
F49L,0.0437,0.0525,,0.0577,0.0627,0.0575,0.0661,0.0431,0.0489,

Variant,area with substrate ENLYFDS,area with substrate ENLYFFS,area with substrate ENLYFGS,area with substrate ENLYFIS,area with substrate ENLYFKS,area with substrate ENLYFMS,area with substrate ENLYFPS,area with substrate ENLYFSS,area with substrate ENLYFTS,area with substrate ENLYFWS
T23F,0.0647,0.0735,0.061,0.0523,,0.0843,0.0548,0.0759,0.0571,0.0547
Q97M,0.0587,0.045,0.061,0.0601,0.0771,0.0717,0.0579,,0.0542,0.0627
F187K,0.0487,,,0.057,,0.0061,0.0336,0.0482,,
S201T,0.0534,,,,0.0559,,0.0591,,,0.0568
L235V,0.0634,0.0478,,0.0632,,,0.0918,,,0.055
I139K,0.061,,,,,0.0652,0.0504,0.0522,0.0644,
P134A,0.0725,0.0694,,,,,,0.0676,,0.0491
M125F,0.0722,0.0605,0.0632,0.0379,0.0575,0.0726,0.0568,0.0662,,0.0531
V58Y,0.069,,,0.0328,,0.0541,0.0423,0.0456,0.0559,
Q59C,0.0516,0.0766,0.0483,0.0614,0.0728,0.072,0.0573,,0.0473,
L61Y,0.0533,0.0493,0.0634,,0.0691,0.0498,0.0553,0.0656,0.0658,
Q118E,0.063,,,0.0579,,,0.0583,,0.0837,
D137G,0.0589,0.0648,0.0548,0.055,0.0596,0.0636,0.0588,0.065,0.0624,
T72M,,,,0.0544,,,0.0545,,,
V126D,,0.0558,,0.0551,,,,,,
S169V,,0.0165,,0.059,,,0.0493,0.0563,0.0789,
Y179P,,,,0.0448,0.0551,0.046,0.0579,0.0558,,0.0609

# Same assay, conditions: temperature: 34 °C; time window: 0-4 h after rhamnose induction
Variant,area with substrate ENLYFYS,area with substrate ENLYFES,area with substrate ENLYFHS,area with substrate ENLYFNS,area with substrate ENLYFRS,area with substrate ENLYFVS,area with substrate ENLYFLS
F41E,0.0529,,,,,,
I84K,,0.061,0.112,0.06,0.0669,,
T233V,0.0525,0.0675,,0.0596,0.0763,,
G2V,0.0653,,,0.0788,0.0364,0.0466,
L33A,,,,0.0558,0.0539,0.0668,
N177W,,,0.0614,0.0693,0.0523,,
T119N,0.0424,0.0638,0.057,,,,0.0659
L191N,0.0527,0.0586,,,,,
R50S,,0.0724,0.0606,0.0594,,,
D149E,,0.0625,,,0.0345,0.0591,0.0622
V58C,,,,0.0612,,,
M188F,,0.059,,0.0626,0.0784,,
G35F,,,,0.0488,0.0432,,0.0459
P155T,,0.0609,0.0453,,,,0.0614
K216Y,0.0726,0.0557,,0.0634,0.131,,0.0772
L5I,,0.0577,,0.051,,,
F49L,0.0571,0.0433,0.0436,0.0634,0.0549,,

Variant,area with substrate ENLYFYS,area with substrate ENLYFES,area with substrate ENLYFHS,area with substrate ENLYFNS,area with substrate ENLYFRS,area with substrate ENLYFVS,area with substrate ENLYFLS
T23F,0.054,0.0596,0.0577,0.0753,0.0618,,0.055
Q97M,0.0612,0.0808,,,,,0.0711
F187K,0.036,,0.0557,,,,
S201T,,0.0663,0.0506,0.0652,0.0592,0.0682,
L235V,,0.0525,,,,,0.0564
I139K,0.0457,0.057,0.066,0.0818,0.082,0.0694,0.0588
P134A,0.0528,0.0631,,0.0584,0.0639,,
V58Y,0.0328,0.0536,,0.0522,,0.0437,0.035
Q59C,,0.0713,,,,,0.0407
L61Y,0.0698,0.0749,0.0524,0.0706,0.0603,,0.0598
Q118E,,0.0658,0.0567,0.0617,0.0836,,0.0635
D137G,0.0295,,0.0598,0.0719,0.0565,,0.0457
T72M,,0.0645,0.0769,,0.0523,,
V126D,,0.0394,,,,0.0703,
S169V,0.0511,0.0557,0.0585,0.0516,,,0.0577
Y179P,0.0625,0.058,,0.069,,0.0493,
